Here are results for 30 compounds from patent publication US7635694B2, “Cyclobutenedione-containing compounds as inhibitors of hepatitis C virus NS3 serine protease” (Schering Corporation, priority 2004, dated 2009).

Structures are written as SMILES.

One experiment deals with Recombinant heterodimeric HCV NS3/NS4A protease (strain 1a) (Hepatitis C virus genotype 1a, UniProt P27958). Briefly: Spectrophotometric assay for HCV protease inhibitory activity. The format is biochemical. The note with it: chromogenic ester substrate, 30° C., pH 6.5, read-out: Ki*. An excerpt:
Assay for HCV Protease Inhibitory Activity:
Spectrophotometric Assay: Spectrophotometric assay for the HCV serine protease can be performed on the inventive compounds by following the procedure described by R. Zhang et al, Analytical Biochemistry, 270 (1999) 268-275, the disclosure of which is incorporated herein by reference. The assay based on the proteolysis of chromogenic ester substrates is suitable for the continuous monitoring of HCV NS3 protease activity. The substrates are derived from the P side of the NS5A-NS5B junction sequence (Ac-DTEDWX(Nva), where X=A or P) whose C-terminal carboxyl groups are esterified with one of four different chromophoric alcohols (3- or 4-nitrophenol, 7-hydroxy-4-methyl-coumarin, or 4-phenylazophenol). Illustrated below are the synthesis, characterization and application of these novel spectrophotometric ester substrates to high throughput screening and detailed kinetic evaluation of HCV NS3 protease inhibitors.
Protein concentrations are determined by the Biorad dye method using recombinant HCV protease standards previously quantified by amino acid analysis. Prior to assay initiation, the enzyme storage buffer (50 mM sodium phosphate pH 8.0, 300 mM NaCl, 10% glycerol, 0.05% lauryl maltoside and 10 mM DTT) is exchanged for the assay buffer (25 mM MOPS pH 6.5, 300 mM NaCl, 10% glycerol, 0.05% lauryl maltoside, 5 μM EDTA and 5 μM DTT) utilizing a Biorad Bio-Spin P-6 prepacked column.
Spectra of Substrates and Products: Spectra of substrates and the corresponding chromophore products are obtained in the pH 6.5 assay buffer. Extinction coefficients are determined at the optimal off-peak wavelength in 1-cm cuvettes (340 nm for 3-Np and HMC, 370 nm for PAP and 400 nm for 4-Np) using multiple dilutions. The optimal off-peak wavelength is defined as that wavelength yielding the maximum fractional difference in absorbance between substrate and product (product OD−substrate OD)/substrate OD).
Protease Assay: HCV protease assays are performed at 30° C. using a 200 μl reaction mix in a 96-well microtiter plate. Assay buffer conditions (25 mM MOPS pH 6.5, 300 mM NaCl, 10% glycerol, 0.05% lauryl maltoside, 5 μM EDTA and 5 μM DTT) are optimized for the NS3/NS4A heterodimer (D. L. Sali et al, ibid.)). Typically, 150 μl mixtures of buffer, substrate and inhibitor are placed in wells (final concentration of DMSO≦4% v/v) and allowed to preincubate at 30° C. for approximately 3 minutes. Fifty μls of prewarmed protease (12 nM, 30° C.) in assay buffer, is then used to initiate the reaction (final volume 200 μl).The plates are monitored over the length of the assay (60 minutes) for change in absorbance at the appropriate wavelength (340 nm for 3-Np and HMC, 370 nm for PAP, and 400 nm for 4-Np) using a Spectromax Plus microtiter plate reader equipped with a monochrometer (acceptable results can be obtained with plate readers that utilize cutoff filters). Proteolytic cleavage of the ester linkage between the Nva and the chromophore is monitored at the appropriate wavelength against a no enzyme blank as a control for non-enzymatic hydrolysis. The evaluation of substrate kinetic parameters is performed over a 30-fold substrate concentration range (˜6-200 μM). Initial velocities are determined using linear regression and kinetic constants are obtained by fitting the data to the Michaelis-Menten equation using non-linear regression analysis (Mac Curve Fit 1.1, K. Raner). Turnover numbers (kcat) are calculated assuming the enzyme is fully active.
Take `C#CCCC(NC(=O)[C@@H]1[C@@H]2[C@H](CN1C(=O)[C@@H](NC(=O)N[C@H](CN(C)c1c(C3CC3)c(=O)c1=O)C(C)(C)C)C1CCCCC1)C2(C)C)C(=O)C(=O)NCC=C` (stereo partly drawn) [drawing 244]: the Ki (as a rule, a measure of affinity in units of concentration, obtained from inhibition or displacement) was 1.9 nM. Same read-out and setting: to `C#CCCC(NC(=O)[C@@H]1[C@@H]2[C@H](CN1C(=O)[C@@H](NC(=O)N[C@H](CN(C)c1c(C(C)(C)C)c(=O)c1=O)C1CCCCC1)C1CCCCC1)C2(C)C)C(=O)C(=O)NCC=C` (stereo partly drawn) [drawing 245] belongs 2.2 nM; to `C#CCCC(NC(=O)[C@@H]1[C@@H]2[C@H](CN1C(=O)[C@@H](NC(=O)N[C@H](CN(C)c1c(C(C)(C)C)c(=O)c1=O)C(C)(C)C)C1(C)CCCCC1)C2(C)C)C(=O)C(=O)NC1CC1` (stereo partly drawn) [drawing 246], 2.6 nM. The same measure, in the same setting: as for `C=CCNC(=O)C(=O)C(CCC)NC(=O)[C@@H]1[C@@H]2[C@H](CN1C(=O)[C@@H](NC(=O)N[C@H](CN(C)c1c(C(C)(C)C)c(=O)c1=O)C(C)(C)C)C1CCCCC1)C2(C)C` (stereo partly drawn) [drawing 247], the figure is 2.7 nM; as for `C=CCNC(=O)C(=O)C(CCC)NC(=O)[C@@H]1[C@@H]2[C@H](CN1C(=O)[C@@H](NC(=O)N[C@H](CN(C)c1c(C3CC3)c(=O)c1=O)C(C)(C)C)C1CCCCC1)C2(C)C` (stereo partly drawn) [drawing 248], 2.7 nM; as for `C#CCCC(NC(=O)[C@@H]1[C@@H]2[C@H](CN1C(=O)[C@@H](NC(=O)N[C@H](CN(C)c1c(C(C)(C)C)c(=O)c1=O)C(C)(C)C)C1(C)CCCCC1)C2(C)C)C(=O)C(=O)NCC=C` (stereo partly drawn) [drawing 249], 3 nM.

For the compound `CN(C[C@@H](NC(=O)N[C@H](C(=O)N1C[C@H]2[C@@H]([C@H]1C(=O)NC(CCC(F)(F)F)C(=O)C(=O)NC1CC1)C2(C)C)C1(C)CCCCC1)C(C)(C)C)c1c(C(C)(C)C)c(=O)c1=O` (stereo partly drawn) [drawing 250], the Ki came out at 4 nM. In the case of `C=CCNC(=O)C(=O)C(CC1CC1)NC(=O)[C@@H]1[C@@H]2[C@H](CN1C(=O)[C@@H](NC(=O)N[C@H](CN(C)c1c(C(C)(C)C)c(=O)c1=O)C(C)(C)C)C1(C)CCCCC1)C2(C)C` (stereo partly drawn) [drawing 251], the Ki was found to be 4.8 nM.

The same experiment, now with this note: chromogenic ester substrate, 30° C., pH 6.5, read-out: Ki* Range.
Turning to `C=CCNC(=O)C(=O)C(CCC)NC(=O)[C@@H]1[C@@H]2[C@H](CN1C(=O)[C@@H](NC(=O)N[C@H](CN(C)c1c(C)c(=O)c1=O)C(C)(C)C)C(C)(C)C)C2(C)C` (stereo partly drawn) [compound 129], the Ki is at most 75 nM.

For the compound `CC(C)c1c(N(C)C[C@@H](NC(=O)N[C@H](C(=O)N2C[C@H]3[C@@H]([C@H]2C(=O)NC(CC2CC2)C(=O)C(N)=O)C3(C)C)C(C)(C)C)C(C)(C)C)c(=O)c1=O` (stereo partly drawn) [compound 130], the Ki was at most 75 nM. The same measure, in the same setting: as for `Cc1c(N(C)C[C@@H](NC(=O)N[C@H](C(=O)N2C[C@H]3[C@@H]([C@H]2C(=O)NC(CC2CC2)C(=O)C(N)=O)C3(C)C)C(C)(C)C)C(C)(C)C)c(=O)c1=O` (stereo partly drawn) [compound 131], the figure is at most 75 nM; as for `CCc1c(N(C)C[C@@H](NC(=O)N[C@H](C(=O)N2C[C@H]3[C@@H]([C@H]2C(=O)NC(CC2CC2)C(=O)C(N)=O)C3(C)C)C(C)(C)C)C(C)(C)C)c(=O)c1=O` (stereo partly drawn) [compound 132], at most 75 nM. For `C#CCCC(NC(=O)[C@@H]1[C@@H]2[C@H](CN1C(=O)[C@@H](NC(=O)N[C@H](CN(C)c1c(N(C)C)c(=O)c1=O)C1CCCCC1)C1CCCCC1)C2(C)C)C(=O)C(=O)NCC=C` (stereo partly drawn) [compound 133], the Ki is at most 75 nM. The same measure, in the same setting: to `C=CCNC(=O)C(=O)C(CCC)NC(=O)[C@@H]1[C@@H]2[C@H](CN1C(=O)[C@@H](NC(=O)N[C@H](CNc1c(C3CC3)c(=O)c1=O)C(C)(C)C)C(C)(C)C)C2(C)C` (stereo partly drawn) [compound 134] belongs at most 75 nM. On the same count and under the same terms, to `C=CCNC(=O)C(=O)C(CCCC)NC(=O)[C@@H]1[C@@H]2[C@H](CN1C(=O)[C@@H](NC(=O)N[C@H](CN(C)c1c(N(C)C)c(=O)c1=O)C(C)(C)C)C(C)(C)C)C2(C)C` (stereo partly drawn) [compound 135] belongs at most 75 nM; to `C=CCNC(=O)C(=O)C(CCC)NC(=O)[C@@H]1[C@@H]2[C@H](CN1C(=O)[C@@H](NC(=O)N[C@H](CN(C)c1c(CC)c(=O)c1=O)C(C)(C)C)C1CCCCC1)C2(C)C` (stereo partly drawn) [compound 136], at most 75 nM; to `C=CCNC(=O)C(=O)C(CCC)NC(=O)[C@@H]1[C@@H]2[C@H](CN1C(=O)[C@@H](NC(=O)N[C@H](CNc1c(C(C)(C)C)c(=O)c1=O)C(C)(C)C)C(C)(C)C)C2(C)C` (stereo partly drawn) [compound 137], at most 75 nM.

For the compound `CN(Cc1ccccc1)c1c(N(C)C[C@@H](NC(=O)N[C@H](C(=O)N2C[C@H]3[C@@H]([C@H]2C(=O)NC(CC2CC2)C(=O)C(N)=O)C3(C)C)C(C)(C)C)C(C)(C)C)c(=O)c1=O` (stereo partly drawn) [compound 138], the Ki is at most 75 nM. As to `C=CCNC(=O)C(=O)C(CCC)NC(=O)[C@@H]1[C@@H]2[C@H](CN1C(=O)[C@@H](NC(=O)N[C@H](CNc1c(N(C)C)c(=O)c1=O)C(C)(C)C)C(C)(C)C)C2(C)C` (stereo partly drawn) [compound 139], the Ki was at most 75 nM. The same measure, in the same setting: to `C=CCNC(=O)C(=O)C(CCC)NC(=O)[C@@H]1[C@@H]2[C@H](CN1C(=O)[C@@H](NC(=O)N[C@H](CN(C)c1c(C(C)(C)C)c(=O)c1=O)C(C)(C)C)C(C)(C)C)C2(C)C` (stereo partly drawn) [compound 140] belongs at most 75 nM; to `CN(C[C@@H](NC(=O)N[C@H](C(=O)N1C[C@H]2[C@@H]([C@H]1C(=O)NC(CC1CC1)C(=O)C(N)=O)C2(C)C)C(C)(C)C)C1CCCCC1)c1c(C(C)(C)C)c(=O)c1=O` (stereo partly drawn) [compound 141], at most 75 nM. As for `C=CCNC(=O)C(=O)C(CCC)NC(=O)[C@@H]1[C@@H]2[C@H](CN1C(=O)[C@@H](NC(=O)N[C@H](CN(C)c1c(C3(C)CC3)c(=O)c1=O)C(C)(C)C)C1CCCCC1)C2(C)C` (stereo partly drawn) [compound 142], the Ki is at most 75 nM. On the same count and under the same terms, as for `C=CCNC(=O)C(=O)C(CCC)NC(=O)[C@@H]1[C@@H]2[C@H](CN1C(=O)[C@@H](NC(=O)N[C@H](CN(C)c1c(C(C)C)c(=O)c1=O)C(C)(C)C)C(C)(C)C)C2(C)C` (stereo partly drawn) [compound 143], the figure is at most 75 nM; as for `C=CCNC(=O)C(=O)C(CCC)NC(=O)[C@@H]1[C@@H]2[C@H](CN1C(=O)[C@@H](NC(=O)N[C@H](CN(C)c1c(CC)c(=O)c1=O)C(C)(C)C)C(C)(C)C)C2(C)C` (stereo partly drawn) [compound 144], at most 75 nM. With `CN(C[C@@H](NC(=O)N[C@H](C(=O)N1C[C@H]2[C@@H]([C@H]1C(=O)NC(CC1CCC1)C(=O)C(N)=O)C2(C)C)C1CCCCC1)C(C)(C)C)c1c(C(C)(C)C)c(=O)c1=O` (stereo partly drawn) [compound 145], the Ki was at most 75 nM. As for `C=CCNC(=O)C(=O)C(CCC)NC(=O)[C@@H]1[C@@H]2[C@H](CN1C(=O)[C@@H](NC(=O)N[C@H](CN(C)c1c(C)c(=O)c1=O)C(C)(C)C)C1CCCCC1)C2(C)C` (stereo partly drawn) [compound 146], the Ki was at most 75 nM.

With `CCNC(=O)C(=O)C(CC1CC1)NC(=O)[C@@H]1[C@@H]2[C@H](CN1C(=O)[C@@H](NC(=O)N[C@H](CN(C)c1c(N(C)C)c(=O)c1=O)C(C)(C)C)C(C)(C)C)C2(C)C` (stereo partly drawn) [compound 147], the Ki is at most 75 nM.

`C=CCNC(=O)C(=O)C(CCC)NC(=O)[C@@H]1[C@@H]2[C@H](CN1C(=O)[C@@H](NC(=O)N[C@H](CN(C)c1c(N(C)C)c(=O)c1=O)C(C)(C)C)C(C)(C)C)C2(C)C` (stereo partly drawn) [compound 148]: the Ki was at most 75 nM. On to `CC(C)(C)c1c(NCC2(NC(=O)N[C@H](C(=O)N3C[C@H]4[C@@H]([C@H]3C(=O)NC(CC3CC3)C(=O)C(N)=O)C4(C)C)C(C)(C)C)CCCCC2)c(=O)c1=O` (stereo partly drawn) [compound 149], for which the Ki was over 75 nM. As to `C=CCNC(=O)C(=O)C(CCC)NC(=O)[C@@H]1[C@H]2CC(C)(C)O[C@H]2CN1C(=O)[C@@H](NC(=O)N[C@H](CN(C)c1c(N(C)C)c(=O)c1=O)C(C)(C)C)C1CCCCC1` (stereo partly drawn) [compound 150], the Ki was over 75 nM.
